Out of some 45,000 compounds screened, about 65 (0.1%) were called active. Calls follow the shape of the dose curve; as a rule, active = well fitted activation curve with a large enough effect; inconclusive = small, poorly fitted or top-dose-only effect; inactive = no such curve, though single readings can be large or run the other way. The list shows a part of the results.
biological target: Galactocerebrosidase (Homo sapiens) (UniProt P54803); assay: A Novel Cell-Based Assay to Identify Small Molecules for B -Galactocerebrosidase; settings: 145M-Twi-hGALC-G270D cells (Twitcher mouse brain line with human GALC G270D), HMU-beta-Gal fluorescence, 48 h; series mostly up to 57.5 µM; activation: at the top concentration; also: 0% is about no effect; nearly all actives have a fitted effect of over 65% in size
In short: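 Mutant human GALC (G270D), stably expressed in a Twitcher mouse brain cell line lacking endogenous GALC, is measured in live-treated cells via 6-hexadecanoylamino-4-methylumbelliferyl-β-galactoside hydrolysis (0.1 mM final, pH 5.2) with fluorescent detection.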

Chain of UniProt P54803 (P54803 whole entry, looked up): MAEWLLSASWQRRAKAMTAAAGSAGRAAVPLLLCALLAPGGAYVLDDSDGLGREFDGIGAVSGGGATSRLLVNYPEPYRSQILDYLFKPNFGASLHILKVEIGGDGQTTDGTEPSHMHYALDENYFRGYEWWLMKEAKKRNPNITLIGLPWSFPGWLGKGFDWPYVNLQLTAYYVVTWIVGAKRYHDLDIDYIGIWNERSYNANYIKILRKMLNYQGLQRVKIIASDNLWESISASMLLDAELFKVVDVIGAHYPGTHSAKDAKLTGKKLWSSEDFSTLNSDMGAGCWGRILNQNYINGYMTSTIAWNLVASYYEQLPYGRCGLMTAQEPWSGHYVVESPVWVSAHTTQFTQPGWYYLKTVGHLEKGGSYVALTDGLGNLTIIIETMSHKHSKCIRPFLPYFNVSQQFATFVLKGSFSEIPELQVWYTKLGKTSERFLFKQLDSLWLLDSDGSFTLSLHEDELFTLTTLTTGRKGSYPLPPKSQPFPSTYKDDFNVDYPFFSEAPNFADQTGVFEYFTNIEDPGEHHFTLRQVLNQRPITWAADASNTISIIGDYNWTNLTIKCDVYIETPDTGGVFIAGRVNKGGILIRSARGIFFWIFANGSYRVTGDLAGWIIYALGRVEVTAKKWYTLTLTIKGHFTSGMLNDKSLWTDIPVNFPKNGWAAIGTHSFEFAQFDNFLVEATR

activation, inactive:
CCc1ccccc1NC(=O)CSc1nnc(-c2ccccc2)c(-c2ccccc2)n1 -5.9%
O=C(CN(c1ccc(Cl)c(C(F)(F)F)c1)S(=O)(=O)c1ccccc1)Nc1cccnc1 -6.35%
COCCNC(=O)Cn1c(=O)c2cccn2c2ccc(F)cc21 -13.2%
C[C@@H]1CCC[C@H](C)N1CCCC(O)(c1ccccc1)c1ccccn1 (some centres not stated) -12%
NC(=O)CSc1nc2c(oc3ccccc32)c(=O)n1Cc1ccccc1 -4.39%
OC[C@]1(O)OC[C@@H](O)[C@H](O)[C@@H]1O -18.4%
CCSc1oc(-c2cccs2)nc1S(=O)(=O)c1ccc(Br)cc1 -28.1%
CCc1nnc(NC(=O)c2nc(SC)ncc2Cl)s1 -23%
Cc1ccccc1C(=O)Nc1c(C(=O)Nc2cccc(F)c2)oc2ccccc12 -5.71%
CN(C1CCCCC1)S(=O)(=O)c1ccc2c(c1)c(=O)c(C(=O)NCc1ccc(F)cc1)cn2C -15%
COc1ccccc1CNC(=O)C1CCN(C(=O)c2sccc2-n2cccc2)CC1 -12.7%
COc1ccccc1CNC(=O)c1cc2c(-c3ccc(Cl)cc3)nn(C)c2s1 -7.11%
CCn1ccc2c(OCC(=O)Nc3ccc(C(C)=O)cc3)cccc2c1=O -3.8%
O=S(=O)(NCC(c1ccco1)N1CCN(c2ccccc2)CC1)c1ccccc1 (configuration not stated) -3.91%
Cc1cccn2c3c(c(=O)nc12)C(c1ccc(F)cc1)CC(=O)N3 (configuration not stated) -22%
CCCN(C(=O)c1c(C)oc2ncnc(N3CCOCC3)c12)c1ccc(Cl)c(Cl)c1 -10.9%
CCOc1ccc(Cn2nnc(C(=O)Nc3ccc(Cl)cc3)c2N)cc1 8.04%
O=[N+]([O-])c1cncn1CCN1CCOCC1 -19.1%
CCOC(=O)C1CCCN(C(=O)Cn2ncc3c4ccccc4n(Cc4ccccc4)c3c2=O)C1 (configuration not stated) -0.283%
CCc1ccccc1NC(=O)C(C)n1c(=O)cc(C)c2c(C)nn(-c3ccccc3)c21 (configuration not stated) -4.57%
CCN(CC)S(=O)(=O)c1ccc2c(c1)nc(CN(C)C(=O)Nc1ccc(C)c(F)c1)n2C 0.128%
O=C(OCC1CCCO1)c1ccc2c(c1)N(Cc1ccccc1)C(=O)c1ccccc1S2(=O)=O (configuration not stated) 3.9%
CCc1ccccc1NC(=O)CN1C(=O)CCSc2ccc(S(=O)(=O)N3CCCC3)cc21 -10.1%
COc1ccc(NC(=O)c2sc3nc(C(F)(F)F)cc(C)c3c2N)cc1OC -3.51%
Cc1ccc(NC(=O)c2nc(S(C)(=O)=O)ncc2N(Cc2ccco2)Cc2cccs2)cc1C -19.5%
COc1ccccc1NC(=O)c1cc2c(C)nn(-c3ccccc3)c2s1 -2.01%
COc1ccc(N2CCN(C(=O)COCc3cc(-c4ccc5c(c4)OCO5)on3)CC2)cc1 -6.95%
COCCCNC(=O)CSc1nc2cc3c(cc2c(=O)n1CCCC(=O)NCc1ccc2c(c1)OCO2)OCO3 -6.46%
Cn1c(=O)cc(SCC(=O)N2CCN(c3ccccc3F)CC2)c2ccc(Cl)cc21 -21.5%
Cc1ccccc1OCCSc1nc2ccc(NC(=O)c3cccs3)cc2s1 -25.5%
CCn1nc(-c2ccccc2)c(-c2ccccc2)c(C(=O)Nc2ccc(NC(C)=O)cc2)c1=O -14.2%
Cc1cc(C)cc(Oc2nc3ccccn3c(=O)c2/C=C(\C#N)c2nc3ccccc3s2)c1 -6.1%
O=C(NC1CCN(Cc2ccccc2)CC1)c1ccc(Cn2c(=O)c3ccccc3n(Cc3ccc(F)cc3)c2=O)cc1 -20.1%
Cc1ccc(-c2csc(=Nc3ccccc3)n2Cc2ccc3c(c2)OCO3)cc1 -13.8%
Cc1ccc(Cn2ccnc2SCC(=O)Nc2nnc(C)s2)cc1 -10.5%
COc1ccc(OC)c(NC(=O)Nc2c(C)n(C)n(-c3ccccc3)c2=O)c1 -11.9%
O=C(Cc1ccccc1)Nc1sc2c(c1C(=O)Nc1ccc(Br)cc1)CCCC2 -22.3%
O=C(NCCN1CCCCC1)c1ccc(Cn2c(SCc3ccccc3)nc3cccnc32)cc1 -25.9%
CC1(c2ccc(Cl)cc2)CC(C)(C)N(C(=O)c2cccc(F)c2)c2ccccc21 (configuration not stated) -14.1%
COCCCn1c(-c2ccc(S(=O)(=O)N3CCOCC3)cc2)csc1=Nc1ccccc1 -31.5%
COc1ccc(CNC(=O)c2cc3sccc3n2Cc2ccc(C)cc2)cc1 -14.4%
Cc1ccc2c(CNCc3ccc(C)o3)c(C(=O)O)n(Cc3ccc(F)cc3)c2c1 -4.8%
CCOc1ccc(CNC(=O)c2cc(-c3ccc(Cl)s3)nc3ccccc23)cc1 -6.63%
O=C(c1ccc2c(c1)N(Cc1ccc(Cl)cc1)C(=O)c1ccccc1S2=O)N1CCCCC1 (configuration not stated) -12.2%
COc1ccc(C(=O)Oc2c(Sc3ccc(C)cc3)c(C)nn2C(C)(C)C)cc1OC -33.6%
COc1ccccc1NC(=O)Cn1c(=O)n(CC(=O)NCc2ccccc2Cl)c(=O)c2sccc21 -6.67%
CCc1c(C)[nH]c2c1C(=O)C(CN1CCOCC1)CC2 (configuration not stated) -12.3%
Cc1ccc(C(=O)NC2(C(F)(F)F)N=C(c3ccccc3)N(Cc3ccccc3)C2=O)cc1 (configuration not stated) -17.5%
Cc1ccc(C(=O)Oc2cc(-c3ccc4c(c3)OCO4)cc(=O)c3c(C)oc(C)c23)cc1 -6.53%
Cc1ccc(NC(=O)C2CCN(c3nc(-c4ccc(C(C)C)cc4)no3)CC2)c(Cl)c1 -15%
CC(=O)c1ccc(NS(=O)(=O)c2ccc(-n3cccn3)cc2)cc1 -31.1%
CCOc1ccc(NC(=O)Cn2c(=O)n(CCCS(=O)(=O)C3CCCCC3)c(=O)c3ccccc32)cc1 -13.7%
COc1ccc(CCNC(=O)CCCn2nc(C)c3sc4ccccc4c3c2=O)c(OC)c1 -12.1%
Nc1ccc(O)c([N+](=O)[O-])c1 -32.6% [at 114 µM]
Cc1cccc(NC(=O)CCNS(=O)(=O)c2ccc3c(c2)CCN3C(=O)C2CC2)c1 -33.9%
CCO/C([O-])=N/c1c[n+](N2CCOCC2)no1 -6.91%
Cc1ccc(NC(=O)Cn2cc(C(=O)C3CCCCC3)c3ccccc32)cc1 -7.96%
CCOc1ccc(-c2cc(CCCC(=O)NCCc3cc(OC)c(OC)c(OC)c3)no2)cc1 17.4%
CCOC(=O)C1CCN(C(c2ccc(C)cc2)c2c(O)cc(C)n(CCOC)c2=O)CC1 (configuration not stated) -5.53%
Cc1ccc(OC(=O)CSc2nnc(-c3ccc4c(c3)OCO4)o2)cc1 -15.9%
Cc1cccc(N(C)C(=O)Cc2c(C(=O)O)[nH]c3ccccc23)c1 -3.93%
Cc1ccc(-n2ncc3c(N4CCC(Cc5ccccc5)CC4)ncnc32)cc1C -16.5%
